The full ranking holds about 33,000 sequences; the median of “E-score (-0.5 to 0.5)” is about -0.04, and the highest 2% start at about 0.36. The list shows a part of the results.
Each sequence was assayed against T1, Hmlalpha2 (UniProt P0CY09) (assay: PBM E-score (8-mer binding enrichment) (E-score (-0.5 to 0.5)); higher = stronger / more preferred TF binding; most listed sequences are background and not binding sites). Conditions: protein concentration: 200 nM; construct: GST-full length.
T1 sequence: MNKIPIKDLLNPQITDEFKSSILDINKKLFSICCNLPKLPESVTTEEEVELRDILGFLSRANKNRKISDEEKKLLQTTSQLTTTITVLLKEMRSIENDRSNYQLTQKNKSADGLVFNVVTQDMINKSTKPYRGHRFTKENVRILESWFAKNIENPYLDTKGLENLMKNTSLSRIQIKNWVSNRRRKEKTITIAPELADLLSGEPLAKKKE
Outline: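 The E-score, a modified Wilcoxon-Mann-Whitney statistic, was computed by the Universal PBM Analysis Suite for every ungapped eight-base word pooled with its reverse complement. Scans behind it were normalised with masliner after bound GST-tagged yeast transcription factors were detected with fluorescent anti-GST. The proteins, at about 100-200 nM, had been applied to universal all-10-mer Agilent arrays made double-stranded by primer extension.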

Sequence	PBM E-score
AACCAAGC	-0.163
ATGCGTGA	0.0998
ATGCTGTC	0.0562
AGGAGCAG	-0.405
CATTACTC	0.169
GTAATGAA	0.239
AAACCATT	0.0007
CTCGCCAA	-0.188
CCGCATAG	-0.129
GCTTAAAC	0.00326
ATTCCGTA	-0.0358
ATCACCGG	-0.202
ATTTGGTG	-0.00391
ACCATGTA	0.467
CCTGAGTC	-0.296
GAGAACGC	0.0772
ATGTGCCC	-0.161
CTAAGGAA	-0.0922
GTGAGGCA	-0.132
CCCCCTCC	-0.183
ACACATGG	0.21
AAACTCGA	-0.0667
CTGCTCGA	-0.251
TAGCCCCA	-0.169
ACCATATG	-0.0429

Sequence	PBM E-score
AGGTCCAG	0.0616
CGCGTGCC	-0.0116
CAGAAGAC	-0.0688
CTTTGCTA	0.0447
CGCCGTAA	-0.0307
GCGTTTAC	0.203
AAGTCCCT	-0.199
TCCCCTCA	-0.0445
GGAGAAGA	-0.299
AGGCAGGG	-0.241
AGGAGAGG	-0.277
CAGCGAGC	0.12
ATAGGAAT	-0.0828
GAAGCCCC	-0.238
GAAATACC	-0.0406
CAGCATGG	0.0718
CTTCATGA	-0.0603
ATATGACC	-0.0326
GAACGCTC	-0.299
AGCCCGCC	-0.307
AGCAATCA	-0.102
ACGCACCC	0.117
CTACGTTC	0.0712
ATCAGAAT	0.00161
CTCTGTAC	-0.00455

Sequence	PBM E-score
GTCTCCAA	0.0994
CCGACGTA	0.0748
CCTCCTAC	-0.116
GTACTAAA	0.216
CACACCCA	0.0204
ACACTAAC	0.144
ACTAGTGC	-0.0536
ATTTTTGG	-0.217
CGATAGAC	0.0431
ATCGCCCC	-0.203
CTTACTAC	0.165
CAGGACTG	-0.209
GGAGGGAC	-0.198
CCCCGGAC	-0.131
CACCCGGA	-0.0881
CCACTCAG	-0.171
CTTACAGC	0.0599
CAACGGAG	-0.12
AGTAAACA	0.337
AGGCCTCA	-0.254
CAAGAAGC	0.101
GTCGTCTA	0.0409
TCCCTCGA	-0.23
CGAACGCG	0.106
GCAACTAA	0.096

Sequence	PBM E-score
CGTTTCGC	-0.0298
AGGGGACT	-0.159
GTGCGCAA	-0.0816
GAGTTAGC	0.0731
ACCTTTGG	-0.356
CGTCGTGA	-0.161
ACTAACGA	0.205
CCTTCATA	0.0271
GCCCCGCC	-0.105
ATATCCAA	0.0283
CCTAAACA	0.138
CCGAGCGC	-0.131
TAGTCTAA	-0.0138
AATTGTTC	0.201
TTCTCCAA	-0.122
CGCTAACG	0.119
GCAAGGCC	-0.216
AATCGATC	-0.0618
GCAAGTAC	0.262
AAGACAAG	0.202
GAAAGGGC	-0.0149
CGTGGGTA	-0.0765
CTTGTCAC	0.0592
CTGAGTCC	-0.185
AGCATGAC	-0.00117

Sequence	PBM E-score
AGATGTGG	-0.0661
CACACTGA	-0.00782
ATATAGGG	-0.211
GTCGCCCA	-0.125
GTGATGTA	0.382
GGGAGACC	-0.315
AACCCGCC	-0.103
CTCACGCC	-0.223
GTACAGAA	0.0238
GGTTAAAA	0.28
CTACTACC	-0.0161
TGCCTTAA	-0.172
ACACGTAA	0.396
AACCTAGG	-0.0475
AAACGACG	0.177
GCCGGGAA	-0.328
CAGCATCC	-0.176
GATCCTGA	-0.176
CCGAGGGC	-0.249
TACCCCCA	-0.254
CGTGCTGA	0.105
AGCCTTAC	-0.197
CAAGATCC	-0.0141
TCATAGCA	-0.0434
GAGAACTA	0.109

Sequence	PBM E-score
CACCCAAG	-0.212
CGGGGCAG	-0.22
CCGACGAG	-0.0517
CTGGAGGA	-0.281
CTTGAATC	-0.0387
CACGGCCA	-0.024
CCTATGCC	-0.225
TGCGGTAA	0.188
GCCAACAA	-0.0172
GGAGGGGA	-0.289
CCAGCAAG	-0.109
ACCGGTCC	-0.424
AAGTCGTG	0.0647
AGCAGACC	-0.0636
CCTCTGTA	0.111
GACTAACA	0.164
GAGGTAGC	-0.223
AATAGTGT	0.0883
ACAAAACG	0.22
CGGTCACA	-0.178
AAGGCCTT	-0.124
ATGCGACC	0.0646
CGACTACC	-0.197
GCATCCAA	-0.18
ATGGTTAA	0.139

Sequence	PBM E-score
CTTGTTAC	0.274
CATTCGGG	-0.162
AGCAAGTG	-0.048
CATGAAGG	0.0817
AATTTATA	0.203
GCGCGTCA	0.0726
CCGTCTCA	-0.136
ACTAGCTC	0.121
ATTGGAGG	-0.299
CCGTCGCA	-0.0478
CAATACGG	-0.195
ACGCGACT	0.218
ACGAGGAA	0.0596
GCGTGGTA	0.0607
GTAGGGGA	-0.222
ATCACCTC	0.0325
GAATAAAC	0.149
AGCGTCCC	-0.0394
ATGCCAAT	-0.00419
CATCTTAG	0.0694
ATCGATAG	0.106
GTTTACCA	0.21
